# Some of the results follow.
# System: HepG2
# Assay: cytotoxicity call (relative viability < 0.9)
# Settings: 10 µM
row,SMILES,cytotoxicity call
1,C[C@@H]1CN([C@H](C)CO)C(=O)Cc2cc(NS(=O)(=O)c3cn(C)cn3)ccc2O[C@@H]1CN(C)C(=O)Nc1ccc2c(c1)OCO2,inactive
2,C[C@H](CO)N1C[C@H](C)[C@H](CN(C)C(=O)C2CCCCC2)OCCCC[C@H](C)Oc2ccc(NS(=O)(=O)c3cccs3)cc2C1=O,inactive
3,CN1CCN(C(=O)C[C@@H]2CC[C@@H]3[C@H](COc4ccc(NC(=O)c5ccc(F)c(F)c5)cc4C(=O)N3C)O2)CC1,inactive
4,Cc1nnc2sc(=S)[nH]n2c1=O,inactive
5,Cc1csc2c(Cl)ncnc12,inactive
6,O=C1CCNc2cc3ccccc3cc21,active
7,C[C@@H]1CN([C@H](C)CO)C(=O)c2cc(NC(=O)C3CCCCC3)ccc2O[C@@H](C)CCCCO[C@@H]1CN(C)C(=O)Cc1ccccc1,inactive
8,Cc1ccc(S(=O)(=O)Nc2ccc3c(c2)C(=O)N([C@@H](C)CO)C[C@H](C)[C@@H](CN(C)S(=O)(=O)c2ccc(Cl)cc2)OCCCC[C@H](C)O3)cc1,active
9,Cc1ccccc1S(=O)(=O)N1C[C@@H](O)COC[C@H]2O[C@H](CC(=O)NCCc3ccccc3)CC[C@@H]21,inactive
10,C[C@H](CO)N1C[C@H](C)[C@H](CN(C)C(=O)NC2CCCCC2)OCCCC[C@H](C)Oc2ccc(NS(=O)(=O)c3ccccc3)cc2C1=O,active
11,C[C@@H]1NC(=O)[C@@H]2CCCN2C(=O)[C@H](CC(N)=O)NC(=O)[C@@H]2CSSC[C@H](N)C(=O)N[C@H]3CSSC[C@H](NC1=O)C(=O)N[C@@H]([C@@H](C)O)C(=O)NCC(=O)N[C@H](C(=O)N[C@@H](Cc1ccc(O)cc1)C(=O)O)CSSC[C@H](NC(=O)[C@H](Cc1ccc(O)cc1)NC(=O)[C@H](CCC(=O)O)NC3=O)C(=O)N2,inactive
12,Cc1c(C(=O)OCC(=O)N(CC(C)C)c2c(N)n(Cc3ccccc3)c(=O)[nH]c2=O)oc2ccccc12,inactive
13,C[C@@H]1CCCCO[C@H](CN(C)Cc2ccc(Cl)c(Cl)c2)[C@H](C)CN([C@@H](C)CO)C(=O)c2cc(NC(=O)Nc3ccc(F)cc3)ccc2O1,inactive
14,COc1ccc(NC(=O)N(C)C[C@H]2Oc3ccc(NS(C)(=O)=O)cc3C(=O)N([C@@H](C)CO)C[C@H]2C)cc1,inactive
15,CC(C)NC(=O)Nc1ccc2c(c1)C(=O)N([C@H](C)CO)C[C@@H](C)[C@@H](CN(C)Cc1ccccc1)OCCCC[C@H](C)O2,inactive
16,O=C(C[C@@H]1CC[C@H]2[C@@H](COC[C@H](O)CN2S(=O)(=O)c2cccc(Cl)c2)O1)NCc1ccncn1,inactive
17,CCOc1ccc(/C=C/C(=O)Sc2ccc(Cl)cc2)cc1,inactive
18,CC=Cc1ccc2n(c1=O)C[C@@H]1[C@@H](CO)[C@H](C(=O)NCCc3cn(C)cn3)[C@H]2N1C(=O)C1CC1,inactive
19,CNC[C@@H]1Oc2ccc(NC(=O)Cn3cnnn3)cc2C(=O)N([C@@H](C)CO)C[C@@H]1C,inactive
20,C[C@@H]1CN([C@@H](C)CO)C(=O)CCCn2nncc2CO[C@@H]1CN(C)C(=O)c1ccc(N2CCN(C)CC2)cc1,inactive
21,C[C@@H]1CN([C@H](C)CO)C(=O)c2cc(NC(=O)Nc3cccc4ccccc34)ccc2O[C@@H]1CN(C)Cc1ccncc1,inactive
22,O=C(C[C@H]1CC[C@H]2[C@@H](COC[C@H](O)CN2C(=O)c2ccccc2)O1)NCCCN1CCOCC1,inactive
23,C[C@H]1CN([C@@H](C)CO)S(=O)(=O)c2ccc(C#CC3CC3)cc2O[C@@H]1CN(C)C(=O)c1cccc(F)c1,inactive
24,COc1cccc(S(=O)(=O)Nc2ccc3c(c2)[C@@H]2C[C@H](CC(=O)NCc4cccc(F)c4)O[C@H](CO)[C@@H]2O3)c1,inactive
25,C[C@@H]1CN([C@@H](C)CO)S(=O)(=O)c2ccc(C#CC3(O)CCCC3)cc2O[C@H]1CN(C)C(=O)c1ccncc1,inactive
26,C[C@@H]1CN([C@H](C)CO)C(=O)Cc2cc(NS(=O)(=O)c3ccccc3)ccc2O[C@H]1CN(C)Cc1ccc(Cl)c(Cl)c1,active
27,C[C@H](CO)N1C[C@H](C)[C@@H](CN(C)Cc2ccc(C(=O)O)cc2)Oc2ccc(NS(=O)(=O)c3cn(C)cn3)cc2C1=O,inactive

# System: S. aureus RN4220
# Assay: growth inhibition call (relative growth <= 0.2)
# Settings: 50 µM
row,SMILES,growth inhibition call
1,C=C1C(CO)C(O)CC1n1cnc2c(=O)[nH]c(N)nc21.O (configuration not stated),inactive
2,C[C@H]1CN([C@@H](C)CO)C(=O)c2c(c3ccccc3n2C)-c2ccccc2CO[C@@H]1CN(C)Cc1cccc(O)c1,inactive
3,C[C@@H]1CN([C@H](C)CO)C(=O)c2cc(NC(=O)Cn3cnnn3)ccc2O[C@@H]1CN(C)C(=O)NC1CCCCC1,inactive
4,c1ccc(CCN2CCNCC2)nc1,inactive
5,CCCOC(=S)N[C@H]1OC[C@@H](O)[C@@H](O)[C@@H]1O,inactive
6,COc1ccccc1NC(=O)N(C)C[C@H]1Oc2ncc(C#CC(C)C)cc2C(=O)N([C@@H](C)CO)C[C@@H]1C,inactive
7,Cc1nc(C2C(=N)N([C@H]3CS(=O)(=O)C[C@@H]3O)CC2=O)sc1C (some centres not stated),inactive
8,C[C@@H]1CCCCO[C@H](CN(C)C(=O)CCCN(C)C)[C@H](C)CN([C@H](C)CO)C(=O)c2cc(NC(=O)Nc3cccc4ccccc34)ccc2O1,inactive
9,CC(C)NC(=O)N(C)C[C@H]1Oc2ccc(NC(=O)Cc3ccccc3)cc2C(=O)N([C@@H](C)CO)C[C@@H]1C,inactive
10,COC(=O)C[C@@H]1C=C[C@@H](N)[C@H](CO)O1,inactive
11,Cc1ccc(S(=O)(=O)n2cc([C@H]3CC(=O)N(C(=O)OCc4ccccc4)[C@H]3C(=O)Nc3cccc4cccnc34)c3ccccc32)cc1,inactive
12,C[C@@H]1CN([C@H](C)CO)C(=O)c2cc(NS(=O)(=O)c3ccc(F)cc3)ccc2O[C@@H](C)CCCCO[C@@H]1CN(C)C(=O)CCC(F)(F)F,inactive
13,C[C@H]1CN([C@@H](C)CO)C(=O)c2cccc(NC(=O)c3ccncc3)c2O[C@H]1CN(C)S(=O)(=O)c1cn(C)cn1,inactive
14,C[C@@H]1CN([C@H](C)CO)C(=O)Cc2cc(NS(=O)(=O)c3cn(C)cn3)ccc2O[C@@H]1CN(C)C(=O)Nc1ccc2c(c1)OCO2,inactive
15,C[C@H](CO)N1C[C@H](C)[C@H](CN(C)C(=O)C2CCCCC2)OCCCC[C@H](C)Oc2ccc(NS(=O)(=O)c3cccs3)cc2C1=O,inactive
16,CN1CCN(C(=O)C[C@@H]2CC[C@@H]3[C@H](COc4ccc(NC(=O)c5ccc(F)c(F)c5)cc4C(=O)N3C)O2)CC1,inactive
17,Cc1nnc2sc(=S)[nH]n2c1=O,inactive
18,Cc1csc2c(Cl)ncnc12,inactive
19,O=C1CCNc2cc3ccccc3cc21,active
20,C[C@@H]1CN([C@H](C)CO)C(=O)c2cc(NC(=O)C3CCCCC3)ccc2O[C@@H](C)CCCCO[C@@H]1CN(C)C(=O)Cc1ccccc1,inactive

row,SMILES,growth inhibition call
1,Cc1ccc(S(=O)(=O)Nc2ccc3c(c2)C(=O)N([C@@H](C)CO)C[C@H](C)[C@@H](CN(C)S(=O)(=O)c2ccc(Cl)cc2)OCCCC[C@H](C)O3)cc1,inactive
2,Cc1ccccc1S(=O)(=O)N1C[C@@H](O)COC[C@H]2O[C@H](CC(=O)NCCc3ccccc3)CC[C@@H]21,inactive
3,C[C@H](CO)N1C[C@H](C)[C@H](CN(C)C(=O)NC2CCCCC2)OCCCC[C@H](C)Oc2ccc(NS(=O)(=O)c3ccccc3)cc2C1=O,inactive
4,C[C@@H]1NC(=O)[C@@H]2CCCN2C(=O)[C@H](CC(N)=O)NC(=O)[C@@H]2CSSC[C@H](N)C(=O)N[C@H]3CSSC[C@H](NC1=O)C(=O)N[C@@H]([C@@H](C)O)C(=O)NCC(=O)N[C@H](C(=O)N[C@@H](Cc1ccc(O)cc1)C(=O)O)CSSC[C@H](NC(=O)[C@H](Cc1ccc(O)cc1)NC(=O)[C@H](CCC(=O)O)NC3=O)C(=O)N2,inactive
5,Cc1c(C(=O)OCC(=O)N(CC(C)C)c2c(N)n(Cc3ccccc3)c(=O)[nH]c2=O)oc2ccccc12,inactive
6,C[C@@H]1CCCCO[C@H](CN(C)Cc2ccc(Cl)c(Cl)c2)[C@H](C)CN([C@@H](C)CO)C(=O)c2cc(NC(=O)Nc3ccc(F)cc3)ccc2O1,inactive
7,COc1ccc(NC(=O)N(C)C[C@H]2Oc3ccc(NS(C)(=O)=O)cc3C(=O)N([C@@H](C)CO)C[C@H]2C)cc1,inactive
8,CC(C)NC(=O)Nc1ccc2c(c1)C(=O)N([C@H](C)CO)C[C@@H](C)[C@@H](CN(C)Cc1ccccc1)OCCCC[C@H](C)O2,inactive
9,O=C(C[C@@H]1CC[C@H]2[C@@H](COC[C@H](O)CN2S(=O)(=O)c2cccc(Cl)c2)O1)NCc1ccncn1,inactive
10,CCOc1ccc(/C=C/C(=O)Sc2ccc(Cl)cc2)cc1,inactive
11,CC=Cc1ccc2n(c1=O)C[C@@H]1[C@@H](CO)[C@H](C(=O)NCCc3cn(C)cn3)[C@H]2N1C(=O)C1CC1,inactive
12,CNC[C@@H]1Oc2ccc(NC(=O)Cn3cnnn3)cc2C(=O)N([C@@H](C)CO)C[C@@H]1C,inactive
13,C[C@@H]1CN([C@@H](C)CO)C(=O)CCCn2nncc2CO[C@@H]1CN(C)C(=O)c1ccc(N2CCN(C)CC2)cc1,inactive
14,C[C@@H]1CN([C@H](C)CO)C(=O)c2cc(NC(=O)Nc3cccc4ccccc34)ccc2O[C@@H]1CN(C)Cc1ccncc1,inactive
15,O=C(C[C@H]1CC[C@H]2[C@@H](COC[C@H](O)CN2C(=O)c2ccccc2)O1)NCCCN1CCOCC1,inactive
16,C[C@H]1CN([C@@H](C)CO)S(=O)(=O)c2ccc(C#CC3CC3)cc2O[C@@H]1CN(C)C(=O)c1cccc(F)c1,inactive
17,COc1cccc(S(=O)(=O)Nc2ccc3c(c2)[C@@H]2C[C@H](CC(=O)NCc4cccc(F)c4)O[C@H](CO)[C@@H]2O3)c1,inactive
18,C[C@@H]1CN([C@@H](C)CO)S(=O)(=O)c2ccc(C#CC3(O)CCCC3)cc2O[C@H]1CN(C)C(=O)c1ccncc1,inactive
19,C[C@@H]1CN([C@H](C)CO)C(=O)Cc2cc(NS(=O)(=O)c3ccccc3)ccc2O[C@H]1CN(C)Cc1ccc(Cl)c(Cl)c1,inactive
20,C[C@H](CO)N1C[C@H](C)[C@@H](CN(C)Cc2ccc(C(=O)O)cc2)Oc2ccc(NS(=O)(=O)c3cn(C)cn3)cc2C1=O,inactive

# — the antibiotic and cytotoxicity screens of Wong et al. (2023)
